Experimental data as given in PubChem BioAssay AID1460 (National Center for Advancing Translational Sciences (NCATS), 2008).
Hit rate of the full screen: of about 270,000 compounds, about 5,800 (2.1%) were called active. This list was built around the results that the source calls inconclusive (neither active nor inactive); the mix of calls is not that of the screen. The call rests on the fitted dose curve; in most records, active means well fitted inhibition curve with a large enough effect; inconclusive means small, poorly fitted or top-dose-only effect; inactive means flat fitted curve, though single readings scatter. A potency beside an inconclusive call is a rough fit, not a confirmed value.

Molecular target: Microtubule-associated protein tau (Homo sapiens) (UniProt P10636)
Sequence of UniProt P10636 (P10636 whole entry, looked up): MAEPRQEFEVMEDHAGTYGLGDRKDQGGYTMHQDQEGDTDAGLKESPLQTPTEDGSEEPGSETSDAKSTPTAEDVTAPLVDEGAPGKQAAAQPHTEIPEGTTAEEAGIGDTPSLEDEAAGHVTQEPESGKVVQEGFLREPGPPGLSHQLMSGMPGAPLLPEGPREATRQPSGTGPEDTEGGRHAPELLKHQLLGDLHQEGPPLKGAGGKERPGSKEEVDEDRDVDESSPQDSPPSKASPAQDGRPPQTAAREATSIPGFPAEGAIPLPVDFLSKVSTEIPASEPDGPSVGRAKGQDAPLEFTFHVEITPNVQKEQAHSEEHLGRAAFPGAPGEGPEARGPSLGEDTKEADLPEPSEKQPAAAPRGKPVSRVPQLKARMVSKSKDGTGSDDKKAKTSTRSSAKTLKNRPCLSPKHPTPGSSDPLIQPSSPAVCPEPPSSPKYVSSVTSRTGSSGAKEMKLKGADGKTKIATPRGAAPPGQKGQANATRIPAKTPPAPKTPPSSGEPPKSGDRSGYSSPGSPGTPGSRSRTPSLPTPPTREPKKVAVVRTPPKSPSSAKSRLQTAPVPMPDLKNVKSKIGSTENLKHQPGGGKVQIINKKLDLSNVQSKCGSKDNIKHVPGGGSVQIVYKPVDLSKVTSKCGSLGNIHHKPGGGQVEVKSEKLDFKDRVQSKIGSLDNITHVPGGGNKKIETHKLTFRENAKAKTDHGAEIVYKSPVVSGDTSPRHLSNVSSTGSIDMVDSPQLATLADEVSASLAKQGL
Assay: qHTS for Inhibitors of Tau Fibril Formation, Thioflavin T Binding; further: nearly all actives have a fitted effect of over 55% in size
Details: recombinant tau K18 P301L (four-repeat tau fragment), heparin-induced fibrillization, ThT fluorescence; series mostly up to 57.4 µM
Outline: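 Aggregation was driven by heparin (20 uM final) acting on recombinant tau […] bearing P301L in 100 mM sodium acetate pH 7; fibrils were detected with Thioflavin T.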
Potency means the concentration at half of the fitted maximal effect; tags describe the fitted curve by direction and shape.

| Structure (SMILES) | Potency |
| --- | --- |
| COc1cc(N2CCCC2)c(OC)cc1/C=C(/C#N)c1ccc(F)cc1 | inconclusive: 20 µM [inhibitor, partial curve] |
| CC(C)Oc1ccc(C(=O)Nc2ccc(N3CCCC3)cc2)cc1 | inconclusive: 5.01 µM [inhibitor, partial curve] |
| CC(C)(C)C(=O)NCC12C=CC(O1)C1C(=O)N(c3ccccc3)C(=O)C12 (stereo not given) | inactive |
| O=C(COc1ccc(Br)cc1)Nc1ccc(-c2nnc(-c3ccco3)o2)cc1 | inconclusive: 0.891 µM [inhibitor, full curve] |
| COc1cccc(N2CCN(C(=O)CN3CCSc4ccccc43)CC2)c1 | inconclusive: 15.8 µM [inhibitor, single point] |
| O=C(/C=C/c1ccco1)c1ccccc1O | inconclusive: 20 µM [inhibitor, single point] |
| CCOC(=O)c1ccc(NC(=O)CCc2nc(-c3ccccc3)no2)cc1 | inconclusive: 1.78 µM [inhibitor, full curve, poor fit] |
| CCCS(=O)(=O)N1CCC(C(=O)NCCOC)CC1 | inconclusive: 0.355 µM [inhibitor, partial curve, poor fit] |
| C=CCc1c(OC(C)=O)c2ccccc2n(C)c1=O | inactive |
| CC(=O)Nc1sc(NC(=O)c2ccc(Cl)cc2)nc1-c1cccs1 | inconclusive: 14.1 µM [inhibitor, partial curve] |
| COc1ccc(C(C)(C)C)cc1NC(=O)CNc1cccc2ccccc12 | inconclusive: 14.1 µM [inhibitor, single point] |
| CCc1ccc(NS(=O)(=O)c2[nH]ncc2C(=O)OC)cc1 | inactive |
| Cc1cc(NC(=O)CS(=O)(=O)c2cn(Cc3cccc(F)c3)c3ccccc23)no1 | inconclusive: 44.7 µM [inhibitor, single point] |
| CCC(C)NC(=O)c1sc2nc(C)c(C(=O)Nc3ccc(C)cc3C)c(-c3ccc(NC(C)=O)cc3)c2c1N (stereo not given) | inconclusive: 14.1 µM [inhibitor, partial curve] |
| Nc1sc(-c2ccccc2)cc1C(=O)N/N=C/c1ccc(Cl)cc1 | active: 3.98 µM |
| Cc1nc2ncccn2c1-c1csc(NCc2ccco2)n1 | inactive |
| COc1cccc(-c2nnc(NC(=O)C(C)C)o2)c1 | inactive |
| c1ccc2c(c1)N1CCCN=C1N2CCN1CCCCC1 | inactive |
| Cc1cc(C)c2cc(CN(Cc3nnnn3Cc3ccc(F)cc3)C3CCCC3)c(=O)[nH]c2c1 | inconclusive: 44.7 µM [inhibitor, single point] |
| Cc1ccccc1-c1ccc(=O)n(CC(=O)Nc2ccc(C(=O)N3CCCC3)cc2)n1 | inactive |
